# Reference: the BET-seq Pho4 binding data (Le et al. 2018)
# Some of the results follow. The energies were worked out here from pooled read counts, against the library average; single values are noisy.
# Target: T1, Pho4 (S. cerevisiae) (UniProt P07270)
# T1 sequence: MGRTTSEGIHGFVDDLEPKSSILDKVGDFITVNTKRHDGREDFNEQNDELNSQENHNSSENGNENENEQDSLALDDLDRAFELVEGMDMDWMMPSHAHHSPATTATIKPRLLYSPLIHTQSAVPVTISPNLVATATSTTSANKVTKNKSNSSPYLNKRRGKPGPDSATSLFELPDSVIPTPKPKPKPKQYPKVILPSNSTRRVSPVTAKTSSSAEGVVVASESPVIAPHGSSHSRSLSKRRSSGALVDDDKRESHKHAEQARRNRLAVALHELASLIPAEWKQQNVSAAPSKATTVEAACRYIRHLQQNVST
# Test: relative binding free energy (BET-seq); higher = weaker binding
# Details: reference: library average
row,Sequence,relative binding free energy [kcal/mol]
1,GTGTCCACGTGTTCGG,0.15
2,AGATTCACGTGAGCGT,0.32
3,CTTTACACGTGGGGGA,0.07
4,CACTGCACGTGGGTGG,-0.22
5,TGTGACACGTGGGGAC,0.02
6,GCTTACACGTGAGTTA,0.49
7,GGCAGCACGTGGGCGC,-0.13
8,GTTTGCACGTGGATCG,0.12
9,TCTGGCACGTGAGGTA,0.15
10,TTGGACACGTGTATAG,0.06
11,GTAGACACGTGGTGGT,-0.02
12,CTTGTCACGTGGTTAT,0.04
13,GGTGACACGTGAAGTG,0.34
14,CGGGGCACGTGAATGC,0.17
15,GGGGTCACGTGGCCTG,0.06
16,TTTTTCACGTGCGGCG,0.28
17,GGACGCACGTGTAGTT,-0.05
18,TAGTACACGTGATGGA,0.23
19,GTAGACACGTGTGTAC,0.3
20,TAGTCCACGTGGCGGG,0.01
21,AGCAGCACGTGGGTAT,-0.08
22,TGTCGCACGTGCCGGG,-0.1
23,GTCTGCACGTGGGTTT,-0.05
24,TAAGTCACGTGGGCAT,0.03
25,ATGGGCACGTGTTCAG,-0.21
26,GGCGGCACGTGGGCTT,-0.35

row,Sequence,relative binding free energy [kcal/mol]
1,ACTTTCACGTGGGATT,0.18
2,ATCGACACGTGTAGGG,-0.01
3,TAGTTCACGTGGAATT,0.38
4,CTGGCCACGTGGGTTA,-0.11
5,AAAAACACGTGTGGGT,0.12
6,GGTGTCACGTGTTTGA,0.19
7,CTAATCACGTGTGTTG,0.15
8,CGTGTCACGTGTAGTA,-0.01
9,CATTGCACGTGCTTGG,0
10,CTGAGCACGTGTGGGA,-0.07
11,GTTTGCACGTGTGTGG,0.12
12,GTGGACACGTGGCAGT,-0.07
13,GTATCCACGTGTTGAT,0
14,AGGAGCACGTGGTTAA,-0.08
15,TCAGTCACGTGATGAG,0.16
16,CTAGTCACGTGAGGCT,0.34
17,TTGATCACGTGTAGTC,0.18
18,AATGTCACGTGGTTCG,0.01
19,TGTGCCACGTGATTTG,-0.01
20,GCTTGCACGTGGAGAT,0.21
21,TGCGCCACGTGGAGTG,-0.19
22,GTGCTCACGTGAGAGG,0.42
23,GGGGGCACGTGTTAAA,-0.02
24,GTGGTCACGTGCTATA,0.16
25,AATAGCACGTGAGTTT,0.19
26,CTGAGCACGTGAAGGT,0.16

row,Sequence,relative binding free energy [kcal/mol]
1,ATGAGCACGTGTAGGA,0.11
2,TGTGACACGTGCCTGG,-0.09
3,GTGGTCACGTGGGTGA,0.01
4,AGGGCCACGTGGGGGA,-0.17
5,CTTTGCACGTGTTTGC,-0.12
6,ATGTTCACGTGCATTA,0.14
7,GATTTCACGTGTCTAT,0.39
8,TTCATCACGTGTCTTT,0.24
9,GTAAGCACGTGTGTAC,0.11
10,CGGGTCACGTGAGGGG,0.29
11,GTGATCACGTGGTGGT,0.16
12,GAGGACACGTGTGTAA,0.11
13,GCTTGCACGTGCGTGG,-0.01
14,TAGGTCACGTGAATTC,0.42
15,CGTAACACGTGGTGGC,-0.07
16,TATTGCACGTGAAAGT,0.19
17,CGGACCACGTGGTGGA,0.04
18,GAGTTCACGTGCTGTT,0.38
19,TAGGACACGTGGGCGT,-0.11
20,TTTGGCACGTGGAGTA,-0.17
21,GTTTGCACGTGATGGA,0.33
22,TGCGTCACGTGTTAGC,0.1
23,TGAGGCACGTGAGCAG,0.08
24,CATGGCACGTGATGGG,-0.05
25,GAGCTCACGTGGGGGC,0.35
26,CAATTCACGTGTGGTA,0.28

row,Sequence,relative binding free energy [kcal/mol]
1,TGGGGCACGTGCAAGG,-0.29
2,GGTCGCACGTGCAGGG,-0.02
3,CGGCGCACGTGGTATT,-0.13
4,TCAGGCACGTGCTTGT,-0.06
5,GAGTTCACGTGGGGCA,0.29
6,TTATACACGTGTGGTT,0.12
7,TTTGACACGTGGTGAT,-0.16
8,ATGGGCACGTGGCTGA,-0.4
9,AGTTGCACGTGAATGT,0.36
10,GGTAACACGTGCTGGG,-0.01
11,AAGGACACGTGTGGGG,0.01
12,TTGGGCACGTGTTTGT,-0.12
13,TTTGTCACGTGAGTGC,0.23
14,GATTTCACGTGCGTTA,0.31
15,CGTAGCACGTGGGGTC,-0.19
16,TATCTCACGTGGGTTT,0.15
17,GGCTTCACGTGGCGTG,0.31
18,AGAGGCACGTGTGACT,0.03
19,ATTTTCACGTGTGGAA,0.39
20,GAGTGCACGTGTGCGT,0.03
21,AGATTCACGTGGGGGC,0.1
22,CTTGTCACGTGTTTAA,0.12
23,GCGTACACGTGGGGCT,-0.03
24,AAATACACGTGGGAGG,-0.1
25,ATGTACACGTGATGAT,0.22
26,AGCGGCACGTGCTGTG,-0.29

row,Sequence,relative binding free energy [kcal/mol]
1,GGGCGCACGTGTGCTT,-0.03
2,TGGTTCACGTGTTAGT,0.32
3,TAATGCACGTGATACG,0.16
4,ATTTGCACGTGAGGGT,0.28
5,TGAGGCACGTGATGGC,-0.06
6,TGTATCACGTGGCGTG,0.09
7,TGAATCACGTGGAGTA,0.26
8,GAGGGCACGTGTACGG,-0.08
9,TTGGTCACGTGATAAG,0.24
10,AATCTCACGTGATGGG,0.31
11,AGGGTCACGTGGTGCT,0.02
12,CGCTGCACGTGTTAGG,0.01
13,TAGAGCACGTGGATTG,-0.04
14,ATGGTCACGTGATGGG,0.25
15,GAATTCACGTGCGGGG,0.13
16,ATGTTCACGTGAATTT,0.28
17,GGGAACACGTGGTTTC,0.17
18,GAGGCCACGTGACGGG,0.01
19,GGGCGCACGTGCTCGG,0.01
20,TAGTGCACGTGGTGTT,-0.1
21,GTCTTCACGTGATGGT,0.32
22,AAAGACACGTGTGGGT,0.12
23,AGCTGCACGTGATGGT,0.21
24,GGGAGCACGTGTAAGG,-0.07
25,TTTTTCACGTGGCGTT,0.34
26,TAAAACACGTGGTATG,-0.09

row,Sequence,relative binding free energy [kcal/mol]
1,GTGGGCACGTGACGAG,0.06
2,TGTTACACGTGAGGCG,0.27
3,GGAAGCACGTGGGGAG,-0.19
4,TGTGGCACGTGTTCTC,-0.13
5,GTGATCACGTGGGGCT,-0.09
6,GGTTTCACGTGTGCCT,0.32
7,TGAATCACGTGTTTGG,0.08
8,GATAACACGTGGGGTG,-0.18
9,AAGTTCACGTGCTGGT,0.35
10,GGCGGCACGTGAGGAT,0.29
11,TCATTCACGTGGGAGT,0.23
12,ATAATCACGTGGTTGG,0.06
13,AGCGGCACGTGTTTAA,0.07
14,GGTTCCACGTGATTGT,0.2
15,TGTATCACGTGTTAGC,0.06
16,AAGTTCACGTGTAGAA,0.24
17,TGGTGCACGTGATTGC,0.17
18,GAAGGCACGTGGAGGT,-0.01
19,GTGAACACGTGATTGG,0.14
20,TAGGACACGTGGGGCA,-0.01
21,GAAGGCACGTGTGTGC,-0.04
22,AAGAGCACGTGATAGG,-0.06
23,AGGGGCACGTGATTAT,0.04
24,ATTTTCACGTGCTGAA,0.31
25,TGTGTCACGTGATTAA,0.21
26,TGTAGCACGTGCGTCT,0.02

row,Sequence,relative binding free energy [kcal/mol]
1,TTTGCCACGTGTGGAG,0.07
2,CGTGGCACGTGTTAGG,-0.12
3,TTTATCACGTGAACTT,0.44
4,TTTAGCACGTGTGCTA,-0.18
5,ATTGGCACGTGTTTGA,-0.1
6,TGATCCACGTGTGGGT,0.01
7,GCGGGCACGTGCGGGT,-0.1
8,GTTTGCACGTGAGTGC,0.23
9,GTTACCACGTGGGTTT,0.13
10,CTTTACACGTGGTGTA,-0.08
11,GTGGCCACGTGGAGTT,-0.07
12,GGCAGCACGTGTTGGG,-0.05
13,GTTAACACGTGGAGGG,0.05
14,CGACGCACGTGGGTAG,-0.13
15,GCCGGCACGTGGGGGA,-0.19
16,ATGCACACGTGGTTGG,-0.1
17,TTTTGCACGTGTATAA,0.05
18,TAGGTCACGTGCGGAG,0.09
19,AGCTTCACGTGTAATT,0.43
20,AGTGTCACGTGATATA,0.13
21,TACAGCACGTGGGCTG,-0.22
22,GGTGTCACGTGGCATA,0.11
23,TTTCTCACGTGTGATG,0.33
24,ATGATCACGTGTTATT,0.03
25,TATGGCACGTGGGTAC,-0.23
26,TCAGACACGTGGGTTG,-0.06

row,Sequence,relative binding free energy [kcal/mol]
1,TAGTACACGTGTATAG,0
2,TTAATCACGTGGCTTA,0.07
3,GATTTCACGTGTTATA,0.16
4,GTGTGCACGTGAGGGG,0.22
5,ATTCGCACGTGTAGTG,-0.04
6,TAGTACACGTGTTTTG,0.04
7,TTGCCCACGTGTGGGT,-0.09
8,GGGACCACGTGGTGAG,-0.13
9,TAGGTCACGTGGGTGG,-0.03
10,CGATGCACGTGTATTG,0.03
11,GTAGTCACGTGTAATA,0.22
12,ATGGCCACGTGTTTTG,-0.01
13,ATGGACACGTGTTTAC,0.25
14,TTAAACACGTGTGTCT,-0.05
15,ATAGGCACGTGAGGGT,0.1
16,GTTTTCACGTGGGAGG,0.32
17,GAAGTCACGTGTGAGA,0.24
18,CGGGGCACGTGGAGTC,-0.11
19,AAGGTCACGTGCTGCG,0.19
20,TGTTTCACGTGGCTGG,0.19
21,TCAGTCACGTGATAGT,0.31
22,CTGGACACGTGTCTGG,0.05
23,AGGAACACGTGGAGCG,0.11
24,TGTGCCACGTGGTTCG,0.08
25,GGGGCCACGTGTTCTT,0.07
26,AGACGCACGTGTGTGG,-0.1

row,Sequence,relative binding free energy [kcal/mol]
1,GGGGTCACGTGATGGA,0.31
2,TATTCCACGTGGTTAA,0.01
3,TTATGCACGTGCAGCG,0.03
4,CAGGACACGTGTTGTT,0
5,TTTAACACGTGTTTAC,0
6,GCTGTCACGTGGGCGC,0.03
7,GTGTCCACGTGTGTTG,0.08
8,TGAGGCACGTGAGGAT,0.23
9,TTAACCACGTGGGGTT,-0.08
10,CTAATCACGTGGGTGG,-0.01
11,GGGGTCACGTGTGAAA,0.24
12,TGTTGCACGTGACTGC,0.1
13,GTGCACACGTGGGAGA,0.01
14,AGTGTCACGTGCGGCT,-0.06
15,GGCGACACGTGGGTTT,0.08
16,TGTATCACGTGGTGTT,0.04
17,CTTTACACGTGTGTGG,0.09
18,TTGGTCACGTGACGGT,0.25
19,CGTGTCACGTGTGGGT,0.09
20,GGAGGCACGTGGACGG,-0.08
21,TGAGGCACGTGCAGGG,-0.09
22,GTTGTCACGTGGAGCT,0.08
